# Test results as given in the RNAGym collection of RNA variant scans (doi:10.1073/pnas.2313332121).
# This sample is rich in variants without activity.
# B1: TPR 5TU (parent)
# chain: GGAUCUUCUCGAUCUAACAAAAAAGACAAAUCUGCCACAAAGCUUGAGAGCAUCUUCGGAUGCAGAGGCGGCAGCCUUCGGUGGCGCGAUAGCGCCAACGUUCUCAACUAUGACACGCAAAACGCGUGCUCCGUUGAAUGGAGUUUAUCAUG
# Variants of: B1
# Assay: polymerase ribozyme fitness, log enrichment relative to wild type (log ratio); higher = more active; in vitro selection for triplet polymerase activity
# In short: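 Frozen incubation at −7 °C formed the core of a single, triplicate in vitro selection round applied to PCR-built, transcribed mutant libraries of each subunit of a heterodimeric triplet polymerase ribozyme. Extended constructs were gel-excised, captured with streptavidin beads and amplified by RT-PCR, and input and output libraries were Illumina-sequenced with a filter of ≥10 input reads and ≥1 read per output. Fitness is the logarithm of genotype enrichment relative to wild-type enrichment, with inverse-variance-weighted replicate averaging, and the logarithm is base 2.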
row,Variant,polymerase ribozyme fitness (log ratio)
1,U53A C57U C87U A110U A138C,≤ -4.2
2,U53A A107U U144G,-2.6
3,U53A C85G G100U G128U U135C G140C,≤ -4.2
4,A52G U56A C69A U77G C103G A122U,≤ -4.2
5,A52G G58A G70C U90A C96A,≤ -4.2
6,U53A C87A A89U G141C,≤ -4.2
7,A52U G84A,-2.18
8,U53A C75G C76U U82A C95U G128A,≤ -4.2
9,A52U G84C G94U C149A,≤ -4.2
10,U53A C93A U101C C125U C132U G140U A147C,≤ -4.2
11,U53A C79G C87A A115C U146C,≤ -4.2
12,U53C G140C,≤ -4.2
13,U53A C76U U77G G141A,≤ -4.2
14,U53A A119U,-2.1
15,A52G U55G G58A C95G U134A U139A,≤ -4.2
16,A52G C87G C93G U101G G152U,≤ -4.2
17,A52U U139A,≤ -4.2
18,U53A A64G A73G G80C U109A,≤ -4.2
19,A52U A60G C85U C125A G128A A142U,≤ -4.2
20,A52G C79U G92A C116G,≤ -4.2
21,U53A C85G G100U U101G,≤ -4.2
22,U53G C79U A91G G140C U144A U145G,≤ -4.2
23,U53G G81A A115C C116U C129G U135G U146C,≤ -4.2
24,A52G G84A G94U G143A,≤ -4.2

row,Variant,polymerase ribozyme fitness (log ratio)
1,U53A C95A A120G,-1.57
2,A52U U53A C57A G58C A89U,0.000593
3,U53A C75G U102G A137U,≤ -4.2
4,A52U G94A G133U G143U,-3.88
5,A52U C54A A64G C93U G136A U139G,≤ -4.2
6,U53A G86A U104G C132G U135C,≤ -4.2
7,A52U U53G U56A G65C C75U C85U U104G U127C U139A,≤ -4.2
8,U53A C96A,-2.37
9,U53A C96G,-2.55
10,A52G C96G G112C,≤ -4.2
11,A52G U53A C57A A73U C87G C93A C132U A150C,≤ -4.2
12,U53A A138U,≤ -4.2
13,U53A G92U C103A,-2.78
14,U53G G59A A89U U90C U135G A137G,≤ -4.2
15,U53A C103U,-0.534
16,U53A C149U,-1.57
17,A52U A73U A89C G92C C129G A137U,≤ -4.2
18,U53A C54U C85G,-2.55
19,A52U A91U A115G C131U,≤ -4.2
20,A52U U101G,-2.22
21,U53G C54A C95A C103A C118A,≤ -4.2
22,U53A C85G G133C A150C,≤ -4.2
23,U53A C57A U102G C125A U134A,≤ -4.2
24,U53A G59C U77G A91G U102A,≤ -4.2

row,Variant,polymerase ribozyme fitness (log ratio)
1,A52G U90A,≤ -4.2
2,A52G G92C G124C U151C,≤ -4.2
3,U53A C85G U90A A91U C99A C118A A120U,≤ -4.2
4,A52G G80A A91C C103G C125A G141U,≤ -4.2
5,U53A C54U C57A G86A,-2.08
6,A52U U82A C93A C131G,≤ -4.2
7,U53C C57A C95U A98G U104A,-0.528
8,U53A A66G C75A C93U A106U A110U,≤ -4.2
9,A52U A73U C85A C108G A119C U127C G140A,≤ -4.2
10,U53G U82G G84C,≤ -4.2
11,A52G C85G A107U U127A G143A,≤ -4.2
12,U53A C131A,-3.17
13,U53A G86A A91C G128C,≤ -4.2
14,U53A G92C C105U A138C,≤ -4.2
15,U53A C99U C116U,-1.7
16,U53C U61G C99U,≤ -4.2
17,A52U U55A U56G A66G C99A C132U,≤ -4.2
18,U53A U56G A115U A120G,-2.77
19,A52G G84U A110G,≤ -4.2
20,U53A C57G G74C C87A C93A C149A,≤ -4.2
21,U53C C57G U61A G124A G128U,-4.14
22,U53A A73G G86A G92U C95U G143U,≤ -4.2
23,U53A U130G C131G,≤ -4.2
24,A52G G58U C87U,-2

row,Variant,polymerase ribozyme fitness (log ratio)
1,A52U C69U G83C C116G,-4.13
2,A52G G70C A91G,≤ -4.2
3,A52G G80A C87A A120G,≤ -4.2
4,U53A C95G C96G U146A,-3.91
5,A52G G86A C93A G143A,≤ -4.2
6,U53A C57G C95G,-4.01
7,U53A G100C,≤ -4.2
8,U53A C79G C93A U102G A113G C116A U148C,≤ -4.2
9,U53G G58C G59C U77C G84C C85U A89G C96U A110U,≤ -4.2
10,U53G G92C C93A,≤ -4.2
11,A52G C93U C116U,-1.48
12,A52U G92A G140U,≤ -4.2
13,A52G U61A G86A G140U,≤ -4.2
14,A52U A66G C85U A120C G140U,≤ -4.2
15,U53A G92A,-3.87
16,A52G C87G C93G C96U U111A,≤ -4.2
17,A52U C125U,-1.42
18,A52U A150G,-1.24
19,A52U G58C U78A G140C A142U,≤ -4.2
20,U53A C57G C75U A97U U102G G140A,≤ -4.2
21,U53A C72G C96G A113C G143A,≤ -4.2
22,U53A G83A C114U,-3.28
23,U53A C72G C85U U127A,≤ -4.2
24,U53A C69U C87G G88A G136U,≤ -4.2

row,Variant,polymerase ribozyme fitness (log ratio)
1,A52U A91G U134A,≤ -4.2
2,U53G A137U,≤ -4.2
3,A52G G74C G88C A115U C129G C131U,≤ -4.2
4,U53A U135C A150C,≤ -4.2
5,A52U U55A,-1.7
6,A52U U56A A73U C76U G83U C95A G112A A119G G140A,≤ -4.2
7,A52U A60C G88U,≤ -4.2
8,A52G U55A G65C G94C U101A,≤ -4.2
9,U53A A91G G124A U139G U146A,-3.5
10,A52G G94C U102C C131U,-1.64
11,U53A C93A,-3.27
12,A52G U78C G100A C103U,≤ -4.2
13,U53G G84U C96G,≤ -4.2
14,U53A G140C,-3.65
15,A52U G59A A60C G68C G84A C96G G133A,≤ -4.2
16,A52G U55A C76A A91G A138G,≤ -4.2
17,A52U C85U G88U U101C C103G A138U,≤ -4.2
18,U53G C85G U104G G126U,≤ -4.2
19,U53A A73G G74C C85A U90C,≤ -4.2
20,U53C U78G U127C U148C,≤ -4.2
21,U53A G74A U77A C96U G126C,≤ -4.2
22,U53C A66G C85A U111C A119U C131A G136U U146G,≤ -4.2
23,A52G U135G U139C A147C,≤ -4.2
24,A52G G100U,-3.98

row,Variant,polymerase ribozyme fitness (log ratio)
1,A52G G100C,≤ -4.2
2,U53A C76A U90C C95G U104G,≤ -4.2
3,A52G U144A,-0.831
4,U53G C54G C85A U134A,≤ -4.2
5,A52U G92C,-2.01
6,U53A G59U A89U C95U C105G C125G U127C U145A,≤ -4.2
7,U53A G88C U90A G100U G140A,≤ -4.2
8,U53A C75G U109G U139C,≤ -4.2
9,U53A U56G U77C U104C,≤ -4.2
10,U53C A107C,≤ -4.2
11,A52G G65A G71U,≤ -4.2
12,U53A G81A A91C G100A C125A G140A,≤ -4.2
13,A52G G58C C99U,-0.284
14,A52G C93G,-3.95
15,U53A G88C A122U,≤ -4.2
16,U53A U56A C85G G140C,≤ -4.2
17,A52U G83A C131G,≤ -4.2
18,A52U C123G,-1.97
19,U53G C57U A91G A122U A142C U144A,≤ -4.2
20,U53A G59C A60G G84A,-1.76
21,U53A A89C G94A G141C,-3.63
22,U53G G92A U148A,≤ -4.2
23,A52G U104A A122G U139G,-1.23
24,A52U U56A U61A C75U C93U C99G C132G,≤ -4.2

row,Variant,polymerase ribozyme fitness (log ratio)
1,U53G C125U,-1.66
2,U53A A91G G126U G140U,≤ -4.2
3,U53A G70C G136A,≤ -4.2
4,U53A C95U,-0.368
5,A52G U53A G67U C96A U148A,≤ -4.2
6,U53A U56A G83A C108G A137U C149U,≤ -4.2
7,U53A U55A U56A C76G G86C A137C A142U,≤ -4.2
8,U53A U148A,-3.17
9,U53A A97U C114U G140U,≤ -4.2
10,U53A G59A G84U,-1.32
11,U53G C72G C85A U90A A91C,≤ -4.2
12,U53A U78C G81A G83U G140U,≤ -4.2
13,U53A U109G U111A A115U G128A,≤ -4.2
14,A52U C63U C87A G140A,≤ -4.2
15,A52U G86U C105U,-1.83
16,U53G G62C C93G A122U,≤ -4.2
17,A52U U53G G88C A91C,≤ -4.2
18,U53G A73G C85U G126U,-2.37
19,U53G U55A G83A G112A A137C U144A,≤ -4.2
20,U53A G70C C114A,≤ -4.2
21,U53A C95U A138C,≤ -4.2
22,U53A G71A C75A G124C C132U,≤ -4.2
23,A52U C85G,≤ -4.2
